Laboratory results from PubChem BioAssay AID686979 (National Center for Advancing Translational Sciences (NCATS), 2013).
Among all 420,000 compounds or so, about 50,000 (12%) were called active. Inconclusive means that the source gave no clear call. Such entries were picked first, then a sample of the others. The call rests on the fitted dose curve; in most records, active means well fitted inhibition curve with a large enough effect; inconclusive means small, poorly fitted or top-dose-only effect; inactive means flat fitted curve, though single readings scatter. No potency is given beside an inconclusive call; the fits are too rough.

Assay: qHTS for Inhibitors of human tyrosyl-DNA phosphodiesterase 1 (TDP1): qHTS in cells in presence of CPT; further: nearly all actives have a fitted effect of over 55% in size
Conditions: chicken DT40 Tdp1-/-;hTDP1 cells + 20 nM CPT, ATP luminescence, 48 h; activity change, negative = growth inhibition: at 46.2 µM (top of the series) unless noted
Outline: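 Cell growth measured by CellTiter-Glo luminescence after a minimum 48 h, 37 C compound exposure with 20 nM CPT in Tdp1-knockout DT40 cells stably expressing hTDP1, seeded 400/well; qHTS titration format.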
On the % scale 0 is the no-effect control and ±100 the full control effect; potency means the concentration at half of the fitted maximal effect; tags describe the fitted curve by direction and shape.

SMILES | Potency | activity change, negative = growth inhibition
Cc1ccc(SCc2nc3ccccc3n2CC(=O)Nc2c(C)cccc2C)cc1 | inconclusive [inhibitor, single point] | 
O=C1CSC(=NC2CCCCC2)N1 | active: 23.1 µM | 
CCC(=O)N1CCc2cc(S(=O)(=O)NCCC(=O)Nc3ccc(N(CC)CC)cc3C)ccc21 | inconclusive [inhibitor, single point] | 
O=C(CN1CCN(c2ccccn2)CC1)Nc1ccc(F)cc1F |  | inactive: -3.97%
COc1cc(/C=N/NC(=O)CSc2cc(C)c(Br)cc2C)ccc1O | inconclusive [inhibitor, single point] | 
CN1/C(=C\C(=O)c2cncc(Br)c2)C(C)(C)c2ccccc21 | active: 3.66 µM | 
CCCCC(=O)Nc1nc2ccc(C(=O)OC)cc2s1 | inconclusive [inhibitor, partial curve] | 
CN(Cc1ccccc1F)C(=O)C1CCCN(C(=O)c2ccc(Cl)cc2)C1 (stereo unspecified) | inconclusive [inhibitor, partial curve] | 
COc1cccc(NC(=O)N(C)C[C@@H]2OCc3cn(nn3)CCCC(=O)N([C@H](C)CO)C[C@H]2C)c1 |  | inactive: 6.16%
O=C(Cn1cc(C(=O)C2CC2)c2ccccc21)NCc1ccc2c(c1)OCO2 | inconclusive [inhibitor, single point] | 
Cc1cc2cc3c(cc2nc1SCC(=O)N1c2ccccc2CC1C)OCO3 (stereo unspecified) | inconclusive [inhibitor, single point] | 
CNc1c(Br)cc(/C=C2\C=Cc3ccccc32)cc1Br |  | inactive: -8.62%
CC(C)Cc1cc(CN2CCC(CO)(Cc3ccccc3)CC2)[nH]n1 | inconclusive [inhibitor, single point] | 
CCCn1c(=O)c(C(=O)Nc2ccccc2)c(O)c2ccccc21 | inconclusive [inhibitor, single point] | 
Cc1ccc(-c2nn3c(C)nnc3c3ccccc23)cc1S(=O)(=O)NCC(C)O (stereo unspecified) | inconclusive [inhibitor, single point] | 
Cc1ccc(S(=O)(=O)N2CCOCC2)cc1C(=O)N1c2ccccc2Sc2ccccc21 | inconclusive [inhibitor, single point] | 
Cc1noc(/C=C/c2ccco2)c1S(=O)(=O)N1CCC(C(=O)N(C)Cc2ccccc2)CC1 | inconclusive [inhibitor, partial curve] | 
O=C(c1ccc2c(c1)N(Cc1ccc(F)cc1)C(=O)c1ccccc1S2(=O)=O)N1CCCCC1 | inconclusive [inhibitor, single point] | 
Cc1ccc2cccc(NC(=S)NC(=O)c3ccn(C)n3)c2n1 | inconclusive [inhibitor, single point] | 
O=C(Cn1cc(C(F)(F)F)ccc1=O)Nc1ccc2c(c1)OCO2 |  | inactive: 6.88%
Cc1ccc2c(c1)oc(=O)n2CC(=O)c1ccccc1 |  | inactive: 5.73%
Cc1c(C(=O)NCc2cccnc2)sc2nc(-c3ccc(F)cc3)cn12 | inconclusive [inhibitor, single point] | 
COc1cc(NC(=O)CSc2c3c(nc4ccccc24)CCC3)cc(OC)c1OC | inconclusive [inhibitor, single point] | 
O=S1(=O)CC(N2CCN(CC3CC3)CC2)CN1Cc1ccccc1 (stereo unspecified) |  | inconclusive: -30.6% [inhibitor]

SMILES | Potency | activity change, negative = growth inhibition
O=C1C2CCCN2C(=S)N1c1ccccc1 (stereo unspecified) |  | inactive: 0.704%
CCOc1ccc(/C=C/C(=O)c2ccc(-c3ccccc3)cc2)cc1 | inconclusive [inhibitor, full curve, poor fit] | 
CCOc1ccc(S(=O)(=O)N2CCN(C(=O)Cc3ccc(S(=O)(=O)N4CCOCC4)s3)CC2)cc1 | inconclusive [inhibitor, single point] | 
OCCN1CCN(CCOc2ccccc2-c2ccccc2)CC1 | inconclusive [inhibitor, full curve] | 
CCCC(C(=O)NC(C)(C)C)N(C(=O)c1snc(C(N)=O)c1N)c1ccc2c(c1)OCCO2 (stereo unspecified) | inconclusive [inhibitor, single point] | 
CCc1ccc(NC(=O)CSc2nc3ccsc3c(=O)n2CCC(=O)O)cc1 |  | inactive: -15.8%
CN1CCN(C(=O)C2=C[C@H](c3ccc(C(F)(F)F)cc3)C[C@H](OCc3ccc(CO)cc3)O2)CC1 | active: 23.1 µM | 
O=C(CSc1ccc(-c2ccccn2)nn1)Nc1ccccc1 | inconclusive [inhibitor, single point] | 
CS(=O)(=O)N1N=C(c2ccco2)CC1c1ccccc1Cl (stereo unspecified) |  | inactive: 9.96%
COc1ccc(CC(=O)NCc2n[nH]c(=S)n2C)cc1 |  | inactive: 8.77%
O=C1NC(Cc2ccc(O)cc2)c2nc3ccc(Br)cc3c(=O)n2-c2ncccc21 (stereo unspecified) |  | inactive: -13.8%
CCN1CCN(C(=S)Nc2ccc(Cl)c(Cl)c2)CC1 | inconclusive [inhibitor, single point] | 
CCN(CC)S(=O)(=O)c1cc(-c2nnc(-c3ccc(Br)cc3)o2)ccc1Br | active: 14.6 µM | 
COc1ccc(/C=C/C(=O)/C=C/c2ccc(OC)cc2OC)c(OC)c1 | inconclusive [inhibitor, single point] | 
O=C(CSc1nc(-c2cccc(F)c2)[nH]c1-c1ccccc1)Nc1ccc2c(c1)OCO2 | active: 10.3 µM | 
CCOC(=O)C(C)Sc1nc2ccccc2c(=O)n1CC (stereo unspecified) | inconclusive [inhibitor, single point] | 
Cn1c(=O)c2cc(NC(=O)Cc3ccccc3F)ccc2n1-c1ccc(C(C)(C)C)cc1 | active: 23.1 µM | 
CCOC(=O)C1(Cc2ccc(O)cc2)NC(c2ccccc2F)C2C(=O)N(C)C(=O)C21 (stereo unspecified) | inconclusive [inhibitor, single point] | 
Cc1cccc(N(CC(=O)N/N=C/c2ccccc2C(=O)O)S(C)(=O)=O)c1C |  | inactive: -14.7%
O=C(C1=C(O)C(=O)N(CC2CCCO2)C1c1ccc(Cl)cc1Cl)c1ccco1 (stereo unspecified) | inconclusive [inhibitor, single point] | 
Nc1nc(NCC(=O)O)nc(NCc2ccccc2)c1[N+](=O)[O-] |  | inactive: 2.2%
Cc1ccc(-n2ncc(C(=O)NCc3ccco3)c2C2CCN(C(=O)OC(C)(C)C)CC2)cc1C | active: 16.4 µM | 
O=c1cc(N2CCN(c3cccc(Cl)c3)CC2)[nH]c(=O)n1C1CCCCC1 | inconclusive [inhibitor, full curve] | 
COc1cccc(Cn2c(=O)c(-c3ccccc3)nc3cncnc32)c1 | inconclusive [inhibitor, single point] | 

SMILES | Potency | activity change, negative = growth inhibition
Cc1cc(N2CCCCC2)nc(SCC(=O)c2ccccc2)n1 | inconclusive [inhibitor, single point] | 
CSc1nc(NC(C)=O)nc(C)c1Cl |  | inactive: -12.4%
CN1C(=O)/C(=C/c2ccccc2Cl)Sc2ccc(C(=O)N3CCCC3)cc21 | inconclusive [inhibitor, single point] | 
Cn1ccc2c(N3CCCCC3)cc3c(c21)C1CCC3C1 (stereo unspecified) | inconclusive [inhibitor, single point] | 
Nc1ccc2c(c1)nc(Cc1ccccc1)n2CCO |  | inactive: -2.46%
Cc1ccc(NC(=O)c2ccc3ccccc3n2)cc1S(=O)(=O)N1CCOCC1 | inconclusive [inhibitor, single point] | 
O=C(N/N=C/c1c(O)n(Cc2ccccc2)c(=O)c2ccccc12)c1cccnc1 | inconclusive [inhibitor, single point] | 
Cc1ccccc1-c1ccc(Nc2ccc(N3CCOCC3)cc2)nn1 | inconclusive [inhibitor, single point] | 
CCN(C(=O)CN1C(=S)NC(C)(C)CC1C)c1ccc(C)c(C)c1 (stereo unspecified) | active: 14.6 µM | 
Cc1ccc(N=c2c([N+](=O)[O-])nn(-c3ccc4c(c3)OCCO4)n2O)cc1F | inconclusive [inhibitor, single point] | 
CC(=O)c1ccc(-n2ccc(=O)cc2)cc1 |  | inactive: 7.14%
CCOC(=O)c1c[nH]c2c(C)cc(C)cc2c1=O | inconclusive [inhibitor, partial curve] | 
CC(C)(C)NS(=O)(=O)c1ccc(NC(=O)C(Sc2ccccc2)c2ccccc2)cc1 (stereo unspecified) | inconclusive [inhibitor, single point] | 
O=C(Nc1sc2c(c1C(=O)NCc1cccnc1)CCCC2)c1ccco1 |  | inactive: -22.8%
COc1ccc(NC(=O)COC(=O)CNS(=O)(=O)c2ccccc2)cc1OC |  | inactive: 4.35%
CCn1cc(C(=O)NCCCN(C)c2ccccc2)c(=O)c2cc(S(=O)(=O)N(C)C)ccc21 | active: 16.4 µM | 
CCc1c(C)c2cc3c(c(C)c2oc1=O)OCN(CCc1ccccc1F)C3 | active: 13 µM | 
O=C(CSc1nnc(-c2ccncc2)n1-c1ccc(F)cc1)NNC(=O)c1cccc(O)c1 | inconclusive [inhibitor, single point] | 
Cc1cc(NC(=O)C(C)SCC(=O)Nc2ccc(SC(F)F)cc2)no1 (stereo unspecified) | inconclusive [inhibitor, single point] | 
Cc1c(C(=O)Nc2cc(F)ccc2F)sc2nc(-c3ccc(F)cc3)cn12 | inconclusive [inhibitor, single point] | 
CN(c1ccccc1)c1nc(N)c([N+](=O)[O-])c(N2CCCC2)n1 | inconclusive [inhibitor, single point] | 
O=C(Nc1ccc(F)c(Cl)c1)c1cc(C2CCCCN2C(=O)c2ccccc2)on1 (stereo unspecified) | active: 8.2 µM | 
CCCCN(C(=O)C1CCC(CNS(=O)(=O)c2cccc3nsnc23)CC1)c1ccccc1 (stereo unspecified) | inconclusive [inhibitor, single point] | 
